This is one part of the list.
Biological target: T1, FOXC2 DBD WT (UniProt Q99958 72-172)
T1 sequence: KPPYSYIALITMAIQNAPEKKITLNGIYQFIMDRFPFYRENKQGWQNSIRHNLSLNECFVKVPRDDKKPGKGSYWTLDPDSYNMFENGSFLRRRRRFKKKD
Test: SELEX-seq (GST pull-down, four rounds, 16-nt random library); pH 7.0; 20 mM HEPES, 140 mM KCl, 0.05 mM TCEP-HCl, pH 7.0, room temperature, 30 min; 2.5 uM GST-FOXC2 DBD, 0.25 uM DNA library; high values mean tight binding
Details: protein: recombinant; tags: N-terminal GST (pGEX-6P-2); dsDNA, one strand shown
How it was run: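 GST-tagged FOXC2 DNA-binding domain (E. coli-expressed, glutathione-purified) was incubated with a DNA library carrying a 16 bp randomized region, at 0.25 μM DNA and 2.5 μM protein, for 30 min at RT in 20 mM HEPES, 140 mM KCl, 0.05 mM TCEP–HCl, pH 7. Complexes were captured on glutathione Sepharose beads, washed, heat-eluted and PCR-amplified over four rounds. Initial and selected libraries were Illumina MiniSeq sequenced. Relative enrichment came from the Bioconductor SELEX R package.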

Sequence | binding signal
AGGAAA | 0.351 relative enrichment
ATAAGG | 0.316 relative enrichment
AAAGCC | 0.356 relative enrichment
TTTAAA | 0.223 relative enrichment
CCGTTA | 0.306 relative enrichment
ATTCAC | 0.416 relative enrichment
TACGTC | 0.674 relative enrichment
AACTCC | 0.458 relative enrichment
ATTGAC | 0.424 relative enrichment
AAGTCT | 0.462 relative enrichment
ATACAA | 0.363 relative enrichment
TTCTCT | 0.453 relative enrichment
CCAACA | 0.292 relative enrichment
TGCAAA | 0.311 relative enrichment
ACTCAC | 0.426 relative enrichment
ACAGCA | 0.332 relative enrichment
TAACGC | 0.263 relative enrichment
ATGTTC | 0.304 relative enrichment
CATCCC | 0.704 relative enrichment
TCATTC | 0.646 relative enrichment
TGATAA | 0.425 relative enrichment
ATGAAT | 0.377 relative enrichment
ATCTCC | 0.613 relative enrichment
TCTTTC | 0.55 relative enrichment
AAGCTT | 0.343 relative enrichment

Sequence | binding signal
GTATTA | 0.304 relative enrichment
TCACTA | 0.459 relative enrichment
ATTTTC | 0.424 relative enrichment
TATGCC | 0.417 relative enrichment
CATTAA | 0.286 relative enrichment
GGTTTA | 0.395 relative enrichment
ACTCAT | 0.359 relative enrichment
AATCAG | 0.409 relative enrichment
AACTGA | 0.259 relative enrichment
TTCAAA | 0.282 relative enrichment
CCTAAC | 0.341 relative enrichment
TTTCCA | 0.332 relative enrichment
CACTAA | 0.37 relative enrichment
CTACTT | 0.503 relative enrichment
CGTCAT | 0.583 relative enrichment
ATGAAA | 0.388 relative enrichment
CATAGA | 0.42 relative enrichment
CGTCAA | 0.451 relative enrichment
TAAACA | 0.701 relative enrichment
ACATGT | 0.276 relative enrichment
ACTACG | 0.563 relative enrichment
TCTCTA | 0.45 relative enrichment
AATTAA | 0.385 relative enrichment
ATTTAG | 0.452 relative enrichment
GTACAA | 0.338 relative enrichment

Sequence | binding signal
AAAACC | 0.202 relative enrichment
GTTATA | 0.37 relative enrichment
ATCTTA | 0.332 relative enrichment
CACAAC | 0.243 relative enrichment
GATAAC | 0.289 relative enrichment
CTAGTA | 0.562 relative enrichment
CTCATA | 0.365 relative enrichment
CCACAA | 0.292 relative enrichment
CTAACT | 0.332 relative enrichment
AATATA | 0.31 relative enrichment
GCTTTA | 0.43 relative enrichment
GATATA | 0.288 relative enrichment
TACTCC | 0.566 relative enrichment
ACTAAG | 0.424 relative enrichment
AATGAC | 0.348 relative enrichment
TCTTAA | 0.293 relative enrichment
TCTTAG | 0.504 relative enrichment
CACATA | 0.33 relative enrichment
TCCTAT | 0.313 relative enrichment
AAGATG | 0.434 relative enrichment
CCTTCT | 0.774 relative enrichment
CATATC | 0.341 relative enrichment
CCTGTA | 0.318 relative enrichment
GAATAC | 0.453 relative enrichment
CACTGC | 0.574 relative enrichment

Sequence | binding signal
ACCCTT | 0.488 relative enrichment
AATAGA | 0.411 relative enrichment
TTCTTC | 0.673 relative enrichment
CTTTAA | 0.3 relative enrichment
CTATAC | 0.247 relative enrichment
GTCAAC | 0.379 relative enrichment
CAATTC | 0.306 relative enrichment
CGCAAA | 0.339 relative enrichment
CACCAA | 0.346 relative enrichment
ATTGTG | 0.307 relative enrichment
CCCGTT | 0.334 relative enrichment
ACGTTG | 0.237 relative enrichment
ATTGCC | 0.483 relative enrichment
AATCAA | 0.343 relative enrichment
AATTTA | 0.211 relative enrichment
GCATAA | 0.415 relative enrichment
CGCGTT | 0.435 relative enrichment
ACCAAA | 0.367 relative enrichment
AGTTTA | 0.403 relative enrichment
AAACAT | 0.385 relative enrichment
ATTATG | 0.368 relative enrichment
AATTCC | 0.366 relative enrichment
AAATCT | 0.424 relative enrichment
GAACAA | 0.355 relative enrichment
ATACGA | 0.49 relative enrichment

Sequence | binding signal
CAACTA | 0.363 relative enrichment
ATTCCT | 0.377 relative enrichment
AATAGT | 0.409 relative enrichment
TCATCT | 0.546 relative enrichment
TGCCAA | 0.263 relative enrichment
ACTGTA | 0.394 relative enrichment
ACATGG | 0.511 relative enrichment
AACTAC | 0.312 relative enrichment
CAACAG | 0.249 relative enrichment
TTTCGC | 0.396 relative enrichment
ATCAAT | 0.463 relative enrichment
TGTACA | 0.376 relative enrichment
TCATCA | 0.526 relative enrichment
CAGTTC | 0.412 relative enrichment
ATCAAC | 0.291 relative enrichment
AACCAC | 0.351 relative enrichment
AAGACA | 0.365 relative enrichment
CATATG | 0.262 relative enrichment
TAAAGA | 0.341 relative enrichment
CACTCT | 0.501 relative enrichment
AGTATC | 0.447 relative enrichment
ATATCG | 0.288 relative enrichment
AGAATA | 0.372 relative enrichment
CATCAG | 0.595 relative enrichment
AACTCG | 0.415 relative enrichment

Sequence | binding signal
CAATCC | 0.386 relative enrichment
ATACGC | 0.457 relative enrichment
TCTCAA | 0.295 relative enrichment
AATTTG | 0.278 relative enrichment
TCTAGT | 0.535 relative enrichment
AGCACT | 0.486 relative enrichment
CCCTTA | 0.461 relative enrichment
ATCTTC | 0.665 relative enrichment
CAAGCC | 0.418 relative enrichment
CGTTTA | 0.415 relative enrichment
AATAAC | 0.481 relative enrichment
CTCCTA | 0.467 relative enrichment
GTTGTA | 0.31 relative enrichment
ACTGTC | 0.296 relative enrichment
CATTCC | 0.643 relative enrichment
ACGCTA | 0.34 relative enrichment
TACTGC | 0.493 relative enrichment
ACCTTG | 0.346 relative enrichment
CTTTCT | 0.471 relative enrichment
GATCAT | 0.546 relative enrichment
CAAGTG | 0.357 relative enrichment
ATTTGA | 0.433 relative enrichment
TTAAAA | 0.212 relative enrichment
AATGGT | 0.376 relative enrichment
ATTTGC | 0.386 relative enrichment

Sequence | binding signal
ATCCGT | 0.404 relative enrichment
AAACGT | 0.254 relative enrichment
CACCTC | 0.731 relative enrichment
TTCGCT | 0.574 relative enrichment
AACCCA | 0.314 relative enrichment
ATTAGC | 0.357 relative enrichment
AGCATA | 0.337 relative enrichment
ATTTGG | 0.408 relative enrichment
CATGTA | 0.339 relative enrichment
CTCAGT | 0.598 relative enrichment
TAAGCA | 0.814 relative enrichment
AGATAA | 0.307 relative enrichment
ATGCCT | 0.563 relative enrichment
CATGCA | 0.513 relative enrichment
GTCTTA | 0.348 relative enrichment
ACAGCG | 0.295 relative enrichment
CGATAA | 0.42 relative enrichment
ACAAAC | 0.587 relative enrichment
AAGCTC | 0.44 relative enrichment
AACCAA | 0.348 relative enrichment
CTACAC | 0.417 relative enrichment
AAATAG | 0.534 relative enrichment
CTCTTT | 0.469 relative enrichment
GATGTA | 0.389 relative enrichment
TTACAA | 0.36 relative enrichment

Sequence | binding signal
ATTAAA | 0.406 relative enrichment
ATACAC | 0.394 relative enrichment
CCAAGT | 0.388 relative enrichment
AAAGGT | 0.302 relative enrichment
AACACC | 0.399 relative enrichment
GATACA | 0.366 relative enrichment
TATCCA | 0.362 relative enrichment
ACATTC | 0.499 relative enrichment
TTAGCC | 0.439 relative enrichment
AAAGCT | 0.238 relative enrichment
AACCTA | 0.423 relative enrichment
AACATA | 0.321 relative enrichment
CACTTC | 0.726 relative enrichment
CTAATA | 0.342 relative enrichment
ATATTG | 0.448 relative enrichment
GACAAA | 0.293 relative enrichment
AACATT | 0.298 relative enrichment
ATAAAA | 0.231 relative enrichment
GTTTCC | 0.321 relative enrichment
ATACTC | 0.432 relative enrichment
GCAACA | 0.23 relative enrichment

Reference: publication PMC12135187, “A role for pH dynamics regulating transcription factor DNA-binding selectivity”
